Paper PMC9103030
These are yes or no findings as the source states them, for the method shown.

Columns and labels:
Assay in all cases: two-hybrid; each of 13 full-length OsJAZs as BD (bait, left column) and AD (prey, top row) fusion; yeast Y2HGold; growth on SD/-Leu/-Trp/-His/-Ade; graded strong (++), weak (+), undetectable (-)
OsJAZ4 (rice) = biological target: T1, OsJAZ4 (rice) (UniProt Q6ES51)
T1 sequence: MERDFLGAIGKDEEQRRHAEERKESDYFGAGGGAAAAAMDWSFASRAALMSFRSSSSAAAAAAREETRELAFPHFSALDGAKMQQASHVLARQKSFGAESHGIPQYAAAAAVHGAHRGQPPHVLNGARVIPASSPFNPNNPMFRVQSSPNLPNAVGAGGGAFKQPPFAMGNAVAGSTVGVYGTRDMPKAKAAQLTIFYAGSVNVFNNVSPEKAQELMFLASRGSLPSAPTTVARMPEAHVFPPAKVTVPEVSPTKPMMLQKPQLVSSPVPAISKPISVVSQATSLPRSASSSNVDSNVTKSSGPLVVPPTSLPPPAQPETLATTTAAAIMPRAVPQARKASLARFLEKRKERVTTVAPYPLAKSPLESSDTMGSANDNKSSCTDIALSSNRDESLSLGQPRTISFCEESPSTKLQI

OsJAZ8 (rice) = biological target: T2, OsJAZ8 (rice) (UniProt Q69P94)
T2 sequence: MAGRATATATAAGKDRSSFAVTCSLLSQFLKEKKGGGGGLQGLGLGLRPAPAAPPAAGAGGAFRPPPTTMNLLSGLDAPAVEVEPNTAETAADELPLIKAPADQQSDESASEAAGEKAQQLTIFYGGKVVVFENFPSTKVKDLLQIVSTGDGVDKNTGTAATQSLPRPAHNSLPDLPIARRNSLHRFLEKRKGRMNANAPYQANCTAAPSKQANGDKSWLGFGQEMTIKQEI

OsJAZ6 (rice) = biological target: T3, OsJAZ6 (rice) (UniProt Q84R94)
T3 sequence: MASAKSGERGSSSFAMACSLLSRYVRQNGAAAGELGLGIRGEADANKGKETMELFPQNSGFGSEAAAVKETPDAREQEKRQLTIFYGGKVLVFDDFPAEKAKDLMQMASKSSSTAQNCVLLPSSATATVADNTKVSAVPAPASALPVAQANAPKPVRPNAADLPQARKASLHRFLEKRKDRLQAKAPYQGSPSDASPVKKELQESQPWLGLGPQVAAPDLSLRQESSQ

OsJAZ5 (rice) = biological target: T4, OsJAZ5 (rice) (UniProt Q7XV97)
T4 sequence: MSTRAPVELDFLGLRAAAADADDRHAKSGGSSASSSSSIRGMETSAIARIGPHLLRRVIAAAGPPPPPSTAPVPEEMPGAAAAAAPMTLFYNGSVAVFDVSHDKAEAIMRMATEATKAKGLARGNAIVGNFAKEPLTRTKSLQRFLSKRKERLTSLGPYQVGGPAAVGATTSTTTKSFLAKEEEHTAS

OsJAZ1 (rice) = biological target: T5, OsJAZ1 (rice) (UniProt Q7XPM8)
T5 sequence: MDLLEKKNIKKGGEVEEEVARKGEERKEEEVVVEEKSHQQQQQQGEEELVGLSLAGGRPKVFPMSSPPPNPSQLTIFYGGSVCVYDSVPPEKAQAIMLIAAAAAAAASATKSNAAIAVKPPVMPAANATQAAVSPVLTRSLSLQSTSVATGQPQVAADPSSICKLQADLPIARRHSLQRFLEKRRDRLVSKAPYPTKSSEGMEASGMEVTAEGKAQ

OsJAZ9 (rice) = biological target: T6, OsJAZ9 (rice) (UniProt Q8GSI0)
T6 sequence: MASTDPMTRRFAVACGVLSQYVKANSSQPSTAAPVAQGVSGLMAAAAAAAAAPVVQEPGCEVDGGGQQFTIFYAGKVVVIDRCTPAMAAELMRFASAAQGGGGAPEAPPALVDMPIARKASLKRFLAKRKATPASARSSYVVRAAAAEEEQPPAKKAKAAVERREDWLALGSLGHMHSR

OsJAZ12 (rice) = biological target: T7, OsJAZ12 (rice) (UniProt Q7XEZ1)
T7 sequence: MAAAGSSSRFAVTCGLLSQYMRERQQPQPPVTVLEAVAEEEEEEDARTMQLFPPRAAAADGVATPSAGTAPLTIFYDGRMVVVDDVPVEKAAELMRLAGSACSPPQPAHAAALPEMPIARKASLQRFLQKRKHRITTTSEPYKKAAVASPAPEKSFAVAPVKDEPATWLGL

OsJAZ3 (rice) = biological target: T8, OsJAZ3 (rice) (UniProt Q6ZJU3)
T8 sequence: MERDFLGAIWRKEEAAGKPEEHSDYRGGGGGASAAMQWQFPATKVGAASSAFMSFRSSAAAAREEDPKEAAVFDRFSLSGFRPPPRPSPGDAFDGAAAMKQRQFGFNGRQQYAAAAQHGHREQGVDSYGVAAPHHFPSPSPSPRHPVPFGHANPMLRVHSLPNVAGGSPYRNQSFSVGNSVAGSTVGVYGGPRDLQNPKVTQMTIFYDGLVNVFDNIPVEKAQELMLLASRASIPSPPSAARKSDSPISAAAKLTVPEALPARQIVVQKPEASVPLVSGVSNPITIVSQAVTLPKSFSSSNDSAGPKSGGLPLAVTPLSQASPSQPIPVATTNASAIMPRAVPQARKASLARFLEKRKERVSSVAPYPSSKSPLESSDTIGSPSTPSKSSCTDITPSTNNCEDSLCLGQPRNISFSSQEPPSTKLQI

OsJAZ7 (rice) = biological target: T9, OsJAZ7 (rice) (UniProt Q8H395)
T9 sequence: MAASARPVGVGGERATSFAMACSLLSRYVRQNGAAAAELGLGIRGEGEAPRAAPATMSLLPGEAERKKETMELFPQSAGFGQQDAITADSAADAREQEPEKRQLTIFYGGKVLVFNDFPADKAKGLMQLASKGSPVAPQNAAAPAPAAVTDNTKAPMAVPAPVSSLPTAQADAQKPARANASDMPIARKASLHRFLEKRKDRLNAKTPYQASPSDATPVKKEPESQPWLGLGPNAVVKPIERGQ

Measured: binding

B1: OsJAZ3 (protein, UniProt Q6ZJU3 1-427)
chain: T8 sequence
no binding: all assays above

B2: OsJAZ4 (protein, UniProt Q6ES51 1-416)
chain: T1 sequence
not listed: OsJAZ9 (rice) | OsJAZ12 (rice)
no binding: all other assays above
